Laboratory results published in PubChem BioAssay AID272 (DTP/NCI, 2004).
Records with an inconclusive call do not appear. For part of its entries the source gives two or more results. The list is limited to them. There may be further records. Values given together are repeats across runs, samples, wells, individuals or studies.

System: Lewis lung carcinoma i.m., BDF1 mice, T/C %
Experiment: NCI In Vivo Anticancer Drug Screen. Data for tumor model Lewis Lung Carcinoma (intramuscular) in B6D2F1 (BDF1) mice
Protocol: The antitumor activity of compounds was measured in mice bearing transplantable tumors. Survival or tumor size were measured and the results are expressed as the measurement made in the treated group (T) divided by the measurement made in the vehicle treated control group (C). The tumor model used in this assay is Lewis Lung Carcinoma (intramuscular) in B6D2F1 (BDF1) mice

[1] = endpoint: mean tumor weight, dose: 50.0 mg/kg/injection, schedule: Q01DX011 (ip), vehicle: steriod suspending solution, higher = larger tumour
[2] = endpoint: mean tumor weight, dose: 10.0 mg/kg/injection, schedule: Q01DX011 (ip), vehicle: saline, higher = larger tumour

In the case of `CC(CN1CC(=O)NC(=O)C1)N1CC(=O)NC(=O)C1` (centres undefined), the T/C (endpoint: mean tumor weight, dose: 25.0 mg/kg/injection, schedule: Q01DX011 (ip), vehicle: steriod suspending solution, higher = larger tumour) is reported as 38 % of control and 78 % of control and the T/C [1] is reported as 28 % of control and 58 % of control.
In the case of `S=c1nc[nH]c2nc[nH]c12`, the T/C (endpoint: mean tumor weight, dose: 39.0 mg/kg/injection, schedule: Q01DX011 (ip), vehicle: other, higher = larger tumour) is reported as 50 % of control and 113 % of control.
For `CSc1ncnc2nc[nH]c12`, the T/C (endpoint: mean tumor weight, dose: 50.0 mg/kg/injection, schedule: Q01DX011 (ip), vehicle: other, higher = larger tumour) was 46 % of control and 76 % of control.
`CN(N=O)C(=O)N[C@@H](C=O)[C@@H](O)[C@H](O)[C@H](O)CO` was tested, and the T/C (endpoint: mean tumor weight, dose: 50.0 mg/kg/injection, schedule: Q01DX011 (ip), vehicle: saline, higher = larger tumour) was 64 % of control and 98 % of control.
With `O=P1(NCCCl)OCCCN1CCCl` (centres undefined) the T/C (endpoint: median survival time, dose: 65.0 mg/kg/injection, schedule: Q01DX011 (ip), vehicle: water, higher = longer survival) was 100 % of control and 200 % of control.
For `O=c1[nH]c(=O)n(C2CC(O)C(CO)O2)cc1F` (centres undefined), the T/C [2] was 41 % of control and 78 % of control.
`O=C1CN(CCN2CC(=O)NC(=O)C2)CC(=O)N1` was tested, and the T/C (endpoint: mean tumor weight, dose: 12.5 mg/kg/injection, schedule: Q01DX011 (ip), vehicle: steriod suspending solution, higher = larger tumour) was 65 % of control and 99 % of control and the T/C [1] was 20 % of control and 77 % of control.
`O=NN(CCCl)C(=O)NC1CCCCC1` was tested, and the T/C (endpoint: mean tumor weight, dose: 5.0 mg/kg/injection, schedule: Q01DX009 (ip), vehicle: saline, higher = larger tumour) was 40 % of control and 509 % of control and the T/C (endpoint: mean tumor weight, dose: 8.4 mg/kg/injection, schedule: Q01DX009 (ip), vehicle: saline, higher = larger tumour) was 10 % of control and 80 % of control.
In the case of `CN(Cc1cnc2nc(N)nc(N)c2n1)c1ccc(C(=O)N[C@@H](CCC(=O)O)C(=O)O)cc1`, the T/C (endpoint: mean tumor weight, dose: 0.62 mg/kg/injection, schedule: Q01DX011 (ip), vehicle: other, higher = larger tumour) is reported as 52 % of control and 102 % of control and the T/C (endpoint: mean tumor weight, dose: 1.25 mg/kg/injection, schedule: Q01DX011 (ip), vehicle: other, higher = larger tumour) is reported as 75 % of control and 103 % of control.
In the case of `CO[C@@]12[C@H](COC(N)=O)C3=C(C(=O)C(C)=C(N)C3=O)N1C[C@@H]1N[C@@H]12`, the T/C (endpoint: median survival time, dose: 0.5 mg/kg/injection, schedule: Q01DX011 (ip), vehicle: water, higher = longer survival) is reported as 115 % of control and 160 % of control.
In the case of `O=NN(CCCl)C(=O)NCCCl`, the T/C (endpoint: median survival time, dose: 14.0 mg/kg/injection, schedule: Q16DX002 (ip), vehicle: saline, higher = longer survival) is reported as 108 % of control and 191 % of control and the T/C (endpoint: median survival time, dose: 23.0 mg/kg/injection, schedule: Q16DX002 (ip), vehicle: saline, higher = longer survival) is reported as 121 % of control and 180 % of control.
For `Cc1c(N)nc([C@H](CC(N)=O)NC[C@H](N)C(N)=O)nc1C(=O)N[C@H](C(=O)N[C@H](C)[C@@H](O)[C@H](C)C(=O)N[C@H](C(=O)NCCc1nc(-c2nc(C(=O)NCCC[S+](C)C)cs2)cs1)[C@@H](C)O)C(OC1OC(CO)C(O)C(O)C1OC1OC(CO)C(O)C(OC(N)=O)C1O)c1cnc[nH]1` (some centres undefined), the T/C [2] was 3 % of control and 32 % of control.
In the case of `N[C@@H](Cc1ccc(N(CCCl)CCCl)cc1)C(=O)O`, the T/C (endpoint: mean tumor weight, dose: 1.5 mg/kg/injection, schedule: Q01DX011 (ip), vehicle: saline, higher = larger tumour) is reported as 70 % of control and 113 % of control.
In the case of `CC1CCC(NC(=O)N(CCCl)N=O)CC1` (centres undefined), the T/C (endpoint: median survival time, dose: 8.0 mg/kg/injection, schedule: Q01DX011 (ip), vehicle: saline with Tween-80, higher = longer survival) is reported as 117 % of control and 175 % of control.
